This is one part of the list.

B1: chr12:13219749:13219850:+|3pUTR|ENSG00000134531|unk|FALSE|unique (ssRNA)
RNA: GGGAGUUCUACAGUCCGACGAUCACAACAGUGGAUGGGGAGGAAGAACAGACUUUUGAGCUCUUCCCAAUAUAGGAAUGUGUUAGUUCUAAAAAUUUUCUUAAGUUGUUUGCUUGGAACUCAGAGUAUAUUUUUCCAUACGAACAACAGAGGAUUGAGCAUCA
B2: chr1:6224442:6224573:-|3pUTR|ENSG00000116237|msi1_unk|FALSE|overlapping (ssRNA)
RNA: GGGAGUUCUACAGUCCGACGAUCCUAUACAAUUUUAAAAAUACUUCCUCAUAGGAUGCUUUGGCCCUUCAUCUAUUUAAUCAUAGCUACAUACCUAUUUUUUAUAAGUAGCAGUACACAUUCAAAGGGGUAUUCCUAGCUCAACAACAGAGGAUUGAGCAUCA
B3: ENSG00000157823:stop:overlap|stop_codon|ENSG00000157823|stop_codon|NA|stop_codon (ssRNA)
RNA: GGGAGUUCUACAGUCCGACGAUCUCCGCUUCUACCAGCGUUUCAAGAAAUUCAACAGCAGAUUGUUCGAGAGACUUUCCAUCUAGUCCUCAAGCGGGAUGACAACAUCUGUAACUUCUUGGAGGGUGGAAGUUUGAUUGGUGGCAACAGAGGAUUGAGCAUCA
B4: chr9:116187394:116187495:+|CDS|ENSG00000182752|msi1|FALSE|unique (ssRNA)
RNA: GGGAGUUCUACAGUCCGACGAUCUGGGGAACAAGUGGGUGGCAUAUUCAGCCCACUGACCCAGAAGUGCAAAGUGCUCAUGUUAGGGGGCAGUGCCCUGAAUCACAACUACCGGGGCUACAUCGAGCACUUCAGUCUGUGGAACAACAGAGGAUUGAGCAUCA
B5: chr19:10391132:10391550:-|three_prime_utr|ENSG00000105401|control|control|control (ssRNA)
RNA: GGGAGUUCUACAGUCCGACGAUCCCCCAGCUACCACCGCCACCUGCUUCCAGGCCCCUAUGUGCCCCUUUUCAGAAAACAGAUAGAUGCCAUCUCGCCCGCUCCUGACUUCCUCUACUUGCGCUGCUCGGCCCAGCCUGGGGGCAACAGAGGAUUGAGCAUCA
B6: chr2:235053981:235054083:+|3pUTR|ENSG00000130147|unk|FALSE|unique (ssRNA)
RNA: GGGAGUUCUACAGUCCGACGAUCCUCCUCCAUCGAGGGAGAGGCCUGAAGGGACUGCCUACUGCAGCUCGUUGCCAAUCACAUAGCUUUCUAUUUGUUAAGUAUAAAUUUAAAUUUAAAAUCACUUUUUUAACGAAUGGGGGGCAACAGAGGAUUGAGCAUCA
B7: chr1:212686416:212686790:-|three_prime_utr|ENSG00000123685|control|control|control (ssRNA)
RNA: GGGAGUUCUACAGUCCGACGAUCUUGUGCAGAUCCAGCAUGGAGGCCACCCUCAGGAGUGACUUCUCAUCCACCCUGGCAGCUAGUAGGUUCUGCUGUUAUGCAGAGCCAUUUCCUCUAGAAUUUGGAUAAUAAAGAUGCUUACAACAGAGGAUUGAGCAUCA
B8: chr16:2457226:2457327:+|3pUTR|ENSG00000162063|unk|total|mutant (ssRNA)
RNA: GGGAGUUCUACAGUCCGACGAUCCAAGCCAUCAGAAUGUUGAAAUGAGGGUGAAGAGCUCAGAUCCCUCUCUUUGGAAAGUUCCGCCUGGAAGCAGUUGGCCACACUGUGUGGAGGGCACCUCUCUGUCCCUUCCGUGUCUCACAACAGAGGAUUGAGCAUCA
B9: ENSG00000204186:stop:overlap|stop_codon|ENSG00000204186|stop_codon|NA|stop_codon (ssRNA)
RNA: GGGAGUUCUACAGUCCGACGAUCAACAACGUGAGAGAAUGAUGACUCGGCUAGCAAACAAACUGAGAGGUAAUGAGGUAAAAUAGAAGUUGGUUUUGUGUUCAGGCUAGUUGAGGAUUCAGUACUUCAGUUGAAAUAUAUUUGCAACAGAGGAUUGAGCAUCA
B10: chr11:75587191:75587292:-|CDS|ENSG00000171533|unk|FALSE|unique (ssRNA)
RNA: GGGAGUUCUACAGUCCGACGAUCACAGCCUCCAAAGAAUCAAGGUCGUAUAGUCCCUGAACCUCUGAAGAAUCAAGUUCCUAUAGUCCCAGUGCCUCUGAAGGAUCAAGAUCCUCUGGUGCCAGUACCAGCAAAGGACCAAGGCAACAGAGGAUUGAGCAUCA
B11: chr17:76725537:76725647:-|CDS|ENSG00000070495|unk|total|mutant (ssRNA)
RNA: GGGAGUUCUACAGUCCGACGAUCUACUCAGUGAAGAUGAAGAUGAAAUACUACAUCGAGUACAUGGAGAGCACUCGAGAUGACCGUCCCCUUUACAUCUUUGACAGCAGCUAUGGUGAACACCCUAAAAGAAGGAAACUUUUGCAACAGAGGAUUGAGCAUCA
B12: chr1:42278343:42278454:-|CDS|ENSG00000198815|unk|total|mutant (ssRNA)
RNA: GGGAGUUCUACAGUCCGACGAUCAAAAAGAAAAUGACUUUAAGUGAAAUUUAUCAGUGGAUUUGUGAUAACUUCCCAUAUUACCGAGAGGCUGGCAGUGGUUGGAAGGUAAGGAUUUUAUUUAAAUUAUUACUUUUAUGAAGUCAACAGAGGAUUGAGCAUCA
B13: chr19:9526975:9527076:-|3pUTR|ENSG00000130818|unk|total|mutant (ssRNA)
RNA: GGGAGUUCUACAGUCCGACGAUCCCUCUCAGACCUUCCAUCAUUACUAUAUUUCACUUUUAUGCCUAUAAACACACACAAAUCCGCAUAUGUAAUCUAAUACAUUGCCGCUAUUUUUCAGAAGUUAUCAGAUCAAUUAAGUAUCAACAGAGGAUUGAGCAUCA
B14: chr5:33997006:33997390:-|three_prime_utr|ENSG00000289791|control|control|control (ssRNA)
RNA: GGGAGUUCUACAGUCCGACGAUCAAUUUAUGUUACACUCAGGCUGCUGGGGGAUGCUUCAGUUUCCUUCACAGAAAACUAAAUAGUGGGAAUCCGGACCAAUAAAGAAAGGAUCAAGAAGCUAAUGAAUUAGUCGCUAAUGCUCAACAGAGGAUUGAGCAUCA
B15: ENSG00000070961:be:win_151|CDS|ENSG00000070961|bound_else_gene|NA|bound_elsewhere_windowed (ssRNA)
RNA: GGGAGUUCUACAGUCCGACGAUCGAAAGCUAUGGAGAUGUCUAUGGAAUUUGCACCAAAUUGAAAACAUCUCCCAAUGAAGGUUUAAGUGGAAACCCUGCAGAUUUAGAAAGAAGAGAAGCAGUGUUUGGAAAGAAUUUUAUACAACAGAGGAUUGAGCAUCA
B16: chr12:67313014:67313056:+|3pUTR|ENSG00000111530|msi1_unk|total|mutant (ssRNA)
RNA: GGGAGUUCUACAGUCCGACGAUCUUUUUGCCGCAUUUAUUUCAGAAAUGUGUAUUUCCAUAAUCCAGAGGUUGUAAAACCACCCGUGUUUCCGUGGUUACAGCAACAUUUGAAAUGGAAACUAAAAGUCCGGAUUUUAUGGAGCAACAGAGGAUUGAGCAUCA
B17: chr1:112912765:112912828:-|3pUTR|ENSG00000155380|msi1_unk|FALSE|overlapping (ssRNA)
RNA: GGGAGUUCUACAGUCCGACGAUCUUAAGGUUUGCAAAUUAAAAAGGGCCAGAAAAAUUUGGCACCAGGCAAACGAAUAAAGAUAGGAUUGGGAAAGAAGUUGCUAAGUGUGCUUAGUUUUAAUAAGUAAUUCCUUCUCUUUUUCAACAGAGGAUUGAGCAUCA
B18: chrX:101412715:101412817:+|CDS|ENSG00000126945|unk|total|mutant (ssRNA)
RNA: GGGAGUUCUACAGUCCGACGAUCGGGUAUGGAGGCUAUGAUGACUAUGGUGGCUAUAAUGAUGGAUAUGGCUUUGGGUCUGACCGAUUUGGAAGAGACCUCAAUUACUGUUUUUCAGGAAUGUCUGAUCACCGAUACGGAGAUCAACAGAGGAUUGAGCAUCA
B19: chr2:80288350:80289195:-|three_prime_utr|ENSG00000162951|control|control|control (ssRNA)
RNA: GGGAGUUCUACAGUCCGACGAUCAGAUUCAGUCCCCAGUCCUCCUUCUCUGAGCAGACCUCUCAUCCGCAGCAUAUAUCUGCUAGAUCUUCUAAGAGCUGAAAUGGAGACUUCUGGAAGAAGGUGGGAAAGAAAUCCAUCUCGCAACAGAGGAUUGAGCAUCA
B20: chr6:117694021:117694122:+|CDS|ENSG00000153989|msi1|total|mutant (ssRNA)
RNA: GGGAGUUCUACAGUCCGACGAUCGCUGUCUCCGGAAGAUGGAAAAGCAGAUAUUGUAAGAGCUGCUCAGGACUUUUGCCAGUCCGCCGCCCAGAAGCAAAAGAGACCCACAGAUUUGGAUGCCGAUACGUCCGCCAGUUUACUCAACAGAGGAUUGAGCAUCA
B21: chrX:130625084:130625185:-|3pUTR|ENSG00000165675|msi1|total|mutant (ssRNA)
RNA: GGGAGUUCUACAGUCCGACGAUCAGUUCCUUUGAAUUUGUCAGUUCAUUCCUGGAAAAUCUUUUGAGUUAAAAUAAGGAUCCCCGGACAGCACCUCGAACUACAGGCCCUAAAGAGAAAUUGCCUCAAACCACAAGUGCUGUACAACAGAGGAUUGAGCAUCA
B22: chr7:101137743:101137929:+|3pUTR|ENSG00000106366|msi1|FALSE|unique (ssRNA)
RNA: GGGAGUUCUACAGUCCGACGAUCCCACUGAGGCCCUUUGCAGGAUGGAACUACGGGGCUUACAGGAGCUUUUGUGUGCCUGGUAGAAACUAUUUCUGUUCCAGUCACAUUGCCAUCACUCUUGUACUGCCUGCCACCGCGGAGCAACAGAGGAUUGAGCAUCA

For this assay, the target named is MSI1 full-length (mouse, UniProt Q61474 1-362). Kind of assay: nsRBNS (natural sequence RNA bind-n-seq); RBNS binding buffer (assumed for nsRBNS): 25 mM Tris pH 7.5, 150 mM KCl, 3 mM MgCl2, 0.01% Triton X-100, 500 ug/ml BSA, 20 U/ml SUPERase-In, 4 C; UNK is unkempt and MSI1 is Musashi-1; names of the RNAs are library labels; protein concentration not given here; high values mean tight binding.
Sequence of UniProt Q61474 (Q61474 whole entry): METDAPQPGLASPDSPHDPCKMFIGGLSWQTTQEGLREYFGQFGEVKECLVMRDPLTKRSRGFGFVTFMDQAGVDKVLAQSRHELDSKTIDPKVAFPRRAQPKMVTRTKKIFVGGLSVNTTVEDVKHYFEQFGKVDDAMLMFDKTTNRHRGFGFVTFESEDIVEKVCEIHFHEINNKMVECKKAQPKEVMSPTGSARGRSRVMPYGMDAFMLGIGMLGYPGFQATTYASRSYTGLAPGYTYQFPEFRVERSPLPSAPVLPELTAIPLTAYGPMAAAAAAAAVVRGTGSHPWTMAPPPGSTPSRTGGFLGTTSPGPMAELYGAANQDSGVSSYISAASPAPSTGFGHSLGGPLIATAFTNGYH
Molecule B1 displayed a binding signal of 6.85 enrichment R.
The figure for B2 is 7.66 enrichment R; for B3 it is 0.348 enrichment R.
The figure for B4 is 0.448 enrichment R; for B5 it is 1.18 enrichment R; for B6 it is 1.21 enrichment R.
In turn, B7 gave a binding signal of 0.405 enrichment R.
The figure for B8 is 0.345 enrichment R; for B9 it is 9.87 enrichment R.
The figure for B10 is 0.45 enrichment R.
For B11, the binding signal came to 0.362 enrichment R.
The figure for B12 is 0.995 enrichment R; for B13 it is 9.57 enrichment R; for B14 it is 0.681 enrichment R.
B15 gave a binding signal of 0.695 enrichment R.
The figure for B16 is 0.295 enrichment R; for B17 it is 0.542 enrichment R.
The figure for B18 is 0.469 enrichment R; for B19 it is 0.43 enrichment R; for B20 it is 0.409 enrichment R.
As for B21, the binding signal worked out at 0.418 enrichment R.
The figure for B22 is 0.302 enrichment R.

Values taken from publication PMC12136788.
